Sequences and labels used below:
T1: RBFOX1 RRM RbFoxmut (Fox-RRM*) (Homo sapiens, UniProt Q9NWB1 109-208, R118D;E147R;N151S;E152T)
T1 sequence: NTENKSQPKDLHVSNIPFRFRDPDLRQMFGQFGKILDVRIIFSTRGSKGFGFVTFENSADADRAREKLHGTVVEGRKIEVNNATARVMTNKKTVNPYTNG

B1: CGAAUCU (DNA:RNA)
RNA: GGGAGACCGGAAUUCAGAUUGUCCCGAAUCUUUAAAUCCCGUCGUAGCCACCA
DNA 1: CAATCTGAATTCCGGTCTCCC
DNA 2: TGGTGGCTACGACGGGATT
B2: UUUAAGU (DNA:RNA)
RNA: B1 RNA with C25U, G26U, A27U, U29A, C30G
DNA 1: CAATCTGAATTCCGGTCTCCC
DNA 2: TGGTGGCTACGACGGGATT
B3: ACCGUUG (DNA:RNA)
RNA: B1 RNA with C25A, G26C, A27C, A28G, C30U, U31G
DNA 1: CAATCTGAATTCCGGTCTCCC
DNA 2: TGGTGGCTACGACGGGATT
B4: ACUAAAU (DNA:RNA)
RNA: B1 RNA with C25A, G26C, A27U, U29A, C30A
DNA 1: CAATCTGAATTCCGGTCTCCC
DNA 2: TGGTGGCTACGACGGGATT
B5: UGCGCGC (DNA:RNA)
RNA: B1 RNA with C25U, A27C, A28G, U29C, C30G, U31C
DNA 1: CAATCTGAATTCCGGTCTCCC
DNA 2: TGGTGGCTACGACGGGATT
B6: AAGGCCU (DNA:RNA)
RNA: B1 RNA with C25A, G26A, A27G, A28G, U29C
DNA 1: CAATCTGAATTCCGGTCTCCC
DNA 2: TGGTGGCTACGACGGGATT
B7: CCAUGGA (DNA:RNA)
RNA: B1 RNA with G26C, A28U, U29G, C30G, U31A
DNA 1: CAATCTGAATTCCGGTCTCCC
DNA 2: TGGTGGCTACGACGGGATT
B8: UCCUUAG (DNA:RNA)
RNA: B1 RNA with C25U, G26C, A27C, A28U, C30A, U31G
DNA 1: CAATCTGAATTCCGGTCTCCC
DNA 2: TGGTGGCTACGACGGGATT
B9: UCACAGU (DNA:RNA)
RNA: B1 RNA with C25U, G26C, A28C, U29A, C30G
DNA 1: CAATCTGAATTCCGGTCTCCC
DNA 2: TGGTGGCTACGACGGGATT
B10: AUUACGU (DNA:RNA)
RNA: B1 RNA with C25A, G26U, A27U, U29C, C30G
DNA 1: CAATCTGAATTCCGGTCTCCC
DNA 2: TGGTGGCTACGACGGGATT
B11: UGAUAUA (DNA:RNA)
RNA: B1 RNA with C25U, A28U, U29A, C30U, U31A
DNA 1: CAATCTGAATTCCGGTCTCCC
DNA 2: TGGTGGCTACGACGGGATT
B12: CUUACAC (DNA:RNA)
RNA: B1 RNA with G26U, A27U, U29C, C30A, U31C
DNA 1: CAATCTGAATTCCGGTCTCCC
DNA 2: TGGTGGCTACGACGGGATT
B13: CGGGGAC (DNA:RNA)
RNA: B1 RNA with A27G, A28G, U29G, C30A, U31C
DNA 1: CAATCTGAATTCCGGTCTCCC
DNA 2: TGGTGGCTACGACGGGATT
B14: GCCAUGC (DNA:RNA)
RNA: B1 RNA with C25G, G26C, A27C, C30G, U31C
DNA 1: CAATCTGAATTCCGGTCTCCC
DNA 2: TGGTGGCTACGACGGGATT
B15: UUUUAAU (DNA:RNA)
RNA: B1 RNA with C25U, G26U, A27U, A28U, U29A, C30A
DNA 1: CAATCTGAATTCCGGTCTCCC
DNA 2: TGGTGGCTACGACGGGATT
B16: AGCAAGG (DNA:RNA)
RNA: B1 RNA with C25A, A27C, U29A, C30G, U31G
DNA 1: CAATCTGAATTCCGGTCTCCC
DNA 2: TGGTGGCTACGACGGGATT
B17: AACGGAC (DNA:RNA)
RNA: GGGAGACCGGAAUUCAGAUUGUCCAACGGACUUAAAUCCCGUCGUAGCCACCA
DNA 1: CAATCTGAATTCCGGTCTCCC
DNA 2: TGGTGGCTACGACGGGATT
B18: CCGUGCA (DNA:RNA)
RNA: B1 RNA with G26C, A27G, A28U, U29G, U31A
DNA 1: CAATCTGAATTCCGGTCTCCC
DNA 2: TGGTGGCTACGACGGGATT
B19: AACCCCU (DNA:RNA)
RNA: B17 RNA with G28C, G29C, A30C, C31U
DNA 1: CAATCTGAATTCCGGTCTCCC
DNA 2: TGGTGGCTACGACGGGATT
B20: GACGGGA (DNA:RNA)
RNA: B17 RNA with A25G, A30G, C31A
DNA 1: CAATCTGAATTCCGGTCTCCC
DNA 2: TGGTGGCTACGACGGGATT

Substitutions are numbered along the chain they refer to; changes in the protein carry UniProt numbers. The list shows a part of the results.

The test concerns the target T1, RBFOX1 RRM RbFoxmut (Fox-RRM*). The test can be described thus: EMSA; HiTS-Eq, 1 nM pool, 10 min; buffer printed only for the single-RNA assays: 10 mM Tris pH 7.5, 150 mM NaCl, 3.4 mM EDTA, 0.001% NP-40, 30 C. Conditions: tags: His6 N-terminal (pET28a); label: 5' 32P. The method in brief: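 Purified RbFox RRM (wild type or mutant) was equilibrated for 10 min in 50 µL with 1 nM of a 5′-radiolabelled pool of RNA with 7 randomized nucleotides, its flanks annealed to DNA oligonucleotides, across increasing protein concentrations. Free RNA was separated by 8% native PAGE, excised, reverse-transcribed, PCR-barcoded and sequenced on an Illumina HiSeq 2500. Relative association constants came from read-count changes of each variant against the control reaction, normalised to the cognate motif.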
(In EMSA bound probe runs differently from free probe, usually more slowly.)
For B1, the binding signal was 0.193 KA relative to UGCAUGU.

Regarding B2, the binding signal is 0.108 KA relative to UGCAUGU.

In the case of B3, the binding signal is 0.118 KA relative to UGCAUGU.

With B4, the binding signal is 0.0808 KA relative to UGCAUGU.

With B5, the binding signal was 0.108 KA relative to UGCAUGU.

For the molecule B6, the binding signal was 0.0632 KA relative to UGCAUGU.

For B7, the binding signal was 0.0873 KA relative to UGCAUGU.

Take B8: the binding signal was 0.102 KA relative to UGCAUGU.

On to B9, for which the binding signal was 0.061 KA relative to UGCAUGU.

Regarding B10, the binding signal is 0.127 KA relative to UGCAUGU.

For B11, the binding signal is 0.0947 KA relative to UGCAUGU.

Take B12: the binding signal is 0.0928 KA relative to UGCAUGU.

In the case of B13, the binding signal was 0.0855 KA relative to UGCAUGU.

Consider B14, for which the binding signal was 0.109 KA relative to UGCAUGU.

For B15, the binding signal is 0.0771 KA relative to UGCAUGU.

As to B16, the binding signal is 0.0886 KA relative to UGCAUGU.

In the case of B17, the binding signal is 0.0772 KA relative to UGCAUGU.

Turning to B18, the binding signal was 0.215 KA relative to UGCAUGU.

B19: the binding signal is 0.0514 KA relative to UGCAUGU.

For the molecule B20, the binding signal is 0.0119 KA relative to UGCAUGU.
